Experimental data taken from PubChem BioAssay AID1347071 (National Center for Advancing Translational Sciences (NCATS), 2019).
Hit rate of the full screen: of about 410,000 compounds, about 260 (0.063%) were called active. This list was built around the results that the source calls inconclusive (neither active nor inactive); the mix of calls is not that of the screen. Calls come from the whole dose curve; as a rule, active = well fitted activation curve with a large enough effect; inconclusive = small, poorly fitted or top-dose-only effect; inactive = no such curve, though single readings can be large or run the other way. Potencies of inconclusive entries are left out as doubtful fits.

Assay: qHTS for compounds that reverse cellular toxicity of Amyloid beta (A-beta) peptide in yeast: Primary Screen; note: nearly all actives have a fitted effect of over 55% in size
Conditions: yeast expressing A-beta42, growth rescue, OD600, 48 h; growth rescue: at 46.1 µM (top of the series), 0% DMSO, 100% iron-clioquinol control
Method in brief: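 Yeast growth medium received pinned compounds, then yeast cells expressing toxic A-beta were added; plates incubated at 30 C for 48 hr. Growth read as absorbance at 600 nm, normalized to DMSO and equimolar FeCl3 plus clioquinol controls.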
Potency is the fitted concentration of half-maximal effect; tags give direction and shape of the fitted curve.

SMILES	Potency
Cc1ccc(OCCn2c(=S)[nH]c3ccccc32)c(C(C)C)c1	inconclusive [activator, full curve, poor fit]
O=C(Nc1nccs1)C1(c2ccc(Cl)cc2)CC1	inactive
Cc1ccc(SC/C(O)=C(\C#N)c2nc3ccccc3s2)cc1	inactive
COc1cccc(C(c2c(O)cc(C)n(Cc3ccco3)c2=O)N2CCN(c3ccccc3)CC2)c1 (centres undefined)	inconclusive [activator, partial curve, poor fit]
COc1cccc(C(C)(O)c2nc(-c3cccc(F)c3)cs2)c1 (centres undefined)	inconclusive [activator, single point]
CCSc1nnc(N(CCC#N)CCC#N)s1	inconclusive [activator, partial curve]
Cc1cc(OCC(=O)NNC(=S)NC(=O)c2cccs2)ccc1Cl	inconclusive [activator, partial curve, poor fit]
O=C(CCc1nc(-c2cccs2)no1)NCc1ccc(F)cc1Cl	inconclusive [activator, partial curve, poor fit]
COc1ccc(C(O)c2nc(-c3ccc(OC)nc3)cs2)cc1 (centres undefined)	inconclusive [activator, single point]
Nc1cccc(/C=C/C(=O)O)c1	inconclusive [activator, single point]
Cc1cc(=O)[nH]c(N/N=C2/CCCC/C2=C\c2ccccc2)n1	inconclusive [activator, single point]
CC(c1ccco1)N(C(=O)c1ccccc1NS(=O)(=O)c1cc([N+](=O)[O-])ccc1Cl)c1ccccn1 (centres undefined)	inconclusive [activator, partial curve, poor fit]
O=C(N/N=C\c1coc2ccccc2c1=O)c1ccco1	inactive
CNc1cncc(-c2cccc(NS(C)(=O)=O)c2)n1	inactive
Cc1ccc(Cc2c(-c3ccc(F)cc3)nc3c(C)cc(Br)cn23)cc1	inactive
CCOCc1cc(CN2CCN(c3cccc(Cl)c3)CC2)c(O)c2ncccc12	inconclusive [activator, single point]
C=Cc1c(C)c2cc3[nH]c(cc4nc(cc5nc(cc1[nH]2)C(C)=C5CCC(=O)O)C(CCC(=O)O)=C4C)c(C)c3C=C	inactive
CCc1ccc(Nc2nc(N)nc(CSc3nc4ccccc4s3)n2)cc1	inconclusive [activator, partial curve]
Cc1cc(C)nc(NS(=O)(=O)c2ccc(NC(=O)COc3ccc(C(C)(C)C)cc3)cc2)n1	inactive
